# In a collection of fitness landscapes (doi:10.1016/j.celrep.2020.107928):
# The full ranking holds about 81,000 sequences; the median of “one-hybrid fitness for binding parS DNA” is about -0.17, and the highest 2% start at about 0.51. The list shows a part of the results.
# B1: Caulobacter ParB omega fusion; a variant is named by its letters at X, in order, B8GW30 (parent)
# chain: MESVVVGEPGMSEGRRGLGRGLSALLGEVDAAPAQAPGEQLGGSREAPIEILQRNPDQPRRTFREEDLEDLSNSIREKGVLQPILVRPSPDTAGEYQIVAGERAWRAAQRAGLKTVPIMVRELDDLAVLEIGIIENVQRADLNVLEEALSYKVLMEKFERTQENIAQTIGKSXSHVANXMRLLXLPDEVQSYLVSGELTAXHARAIAAAADPVALAKQIIEGGLSVRETEALARKAPNLSAGKSKGGRPPRVKDTDTQALESDLSSVLGLDVSIDHRGSTGTLTITYATLEQLDDLCNRLTRGI
# Variants of: B1
# Assay: one-hybrid fitness for binding parS DNA (scaled: cognate 1, non-cognate 0); higher = stronger binding
# Details: with parS DNA site
# Method in brief: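 Selection: bacterial one-hybrid in E. coli USO, HIS3 reporter with the site 19 bp from the promoter, 48 hours at 37°C on M9-minus-histidine plus 0.1 mM IPTG and 5 mM 3-AT. Libraries were Caulobacter ParB with four randomised specificity codons, sequenced on Illumina before and after selection. Fitness is the rescaled log change in variant-to-wild-type read ratio, anchored to the cognate and non-cognate sites.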
row,Variant,one-hybrid fitness for binding parS DNA
1,EHGL,≤ 0.2
2,SPHY,≤ 0.2
3,NLIT,≤ 0.2
4,LPLN,≤ 0.2
5,TSQG,≤ 0.2
6,HDWY,≤ 0.2
7,NLKM,≤ 0.2
8,TREA,≤ 0.2
9,RPKK,≤ 0.2
10,FPLT,≤ 0.2
11,LTTE,≤ 0.2
12,DIKC,≤ 0.2
13,DIGR,≤ 0.2
14,DDYV,≤ 0.2
15,DPPG,≤ 0.2
16,PITD,≤ 0.2
17,RFMM,0.275
18,GWNC,≤ 0.2
19,LVRP,≤ 0.2
20,QPAQ,≤ 0.2
21,QCQS,≤ 0.2
22,QQCR,≤ 0.2
23,VASM,≤ 0.2
24,TWNP,≤ 0.2
25,EIFG,≤ 0.2

row,Variant,one-hybrid fitness for binding parS DNA
1,FPSD,≤ 0.2
2,TYKG,≤ 0.2
3,PNPK,≤ 0.2
4,PNNI,≤ 0.2
5,QCAL,≤ 0.2
6,LWCG,≤ 0.2
7,ALNM,≤ 0.2
8,RWRP,≤ 0.2
9,CNWV,≤ 0.2
10,VNQF,≤ 0.2
11,TTMN,≤ 0.2
12,VDMY,≤ 0.2
13,GPKG,≤ 0.2
14,SLQG,≤ 0.2
15,TFFS,≤ 0.2
16,QAIG,≤ 0.2
17,CRNP,0.273
18,GHVY,≤ 0.2
19,VASN,≤ 0.2
20,SGRL,≤ 0.2
21,DYNL,≤ 0.2
22,HYPR,≤ 0.2
23,QQPK,≤ 0.2
24,PMWC,≤ 0.2
25,WDVW,≤ 0.2

row,Variant,one-hybrid fitness for binding parS DNA
1,WNFR,≤ 0.2
2,IPPY,≤ 0.2
3,MRTK,≤ 0.2
4,QVLG,≤ 0.2
5,GTGY,≤ 0.2
6,AVSC,≤ 0.2
7,GHEC,≤ 0.2
8,RMQN,0.501
9,MMVW,≤ 0.2
10,ARLP,≤ 0.2
11,DDWG,≤ 0.2
12,AHKW,≤ 0.2
13,PITQ,≤ 0.2
14,PLEK,≤ 0.2
15,LIVF,≤ 0.2
16,WTNY,≤ 0.2
17,LYLA,≤ 0.2
18,AGRV,≤ 0.2
19,DNYG,≤ 0.2
20,YVQW,≤ 0.2
21,AIGD,≤ 0.2
22,YRPR,≤ 0.2
23,AFPC,≤ 0.2
24,PYNK,≤ 0.2
25,PEAM,≤ 0.2

row,Variant,one-hybrid fitness for binding parS DNA
1,VPGT,≤ 0.2
2,LLRV,≤ 0.2
3,RENN,≤ 0.2
4,AIPG,≤ 0.2
5,VLTN,≤ 0.2
6,QDAS,≤ 0.2
7,TSRN,≤ 0.2
8,RPGM,≤ 0.2
9,CYKC,≤ 0.2
10,LYSK,≤ 0.2
11,IKYS,≤ 0.2
12,KPDR,≤ 0.2
13,KCRM,≤ 0.2
14,LEHP,≤ 0.2
15,GTGT,≤ 0.2
16,ITET,≤ 0.2
17,YATK,≤ 0.2
18,SPHC,≤ 0.2
19,TSNY,≤ 0.2
20,ATTF,≤ 0.2
21,SPTI,≤ 0.2
22,STIE,≤ 0.2
23,ITQI,≤ 0.2
24,GHAV,≤ 0.2
25,QERY,≤ 0.2

row,Variant,one-hybrid fitness for binding parS DNA
1,VLDS,≤ 0.2
2,PTTA,≤ 0.2
3,VAAV,≤ 0.2
4,DKSR,≤ 0.2
5,AEPT,≤ 0.2
6,MPSV,≤ 0.2
7,QTIK,≤ 0.2
8,LQRM,≤ 0.2
9,QKIT,≤ 0.2
10,LNPL,≤ 0.2
11,VIDE,≤ 0.2
12,YFYC,≤ 0.2
13,TIGM,≤ 0.2
14,KGPW,≤ 0.2
15,WPYT,≤ 0.2
16,RDGS,≤ 0.2
17,QWVE,≤ 0.2
18,RPPR,≤ 0.2
19,RTRG,0.908
20,ITPF,≤ 0.2
21,ATYD,≤ 0.2
22,PEKP,≤ 0.2
23,PHTW,≤ 0.2
24,LRQQ,≤ 0.2
25,PPKN,≤ 0.2

row,Variant,one-hybrid fitness for binding parS DNA
1,RKQF,≤ 0.2
2,YFYR,≤ 0.2
3,LMDG,≤ 0.2
4,SANT,≤ 0.2
5,ACSR,≤ 0.2
6,PHRN,≤ 0.2
7,RWAL,≤ 0.2
8,KLAE,≤ 0.2
9,RWYS,0.803
10,IHMT,≤ 0.2
11,LWFG,≤ 0.2
12,PDSG,≤ 0.2
13,IYAG,≤ 0.2
14,PNRW,≤ 0.2
15,TQHI,≤ 0.2
16,RPRK,≤ 0.2
17,CHCT,≤ 0.2
18,TMLM,≤ 0.2
19,ENQS,≤ 0.2
20,LKTV,≤ 0.2
21,AMEE,≤ 0.2
22,TFVT,≤ 0.2
23,GTCS,≤ 0.2
24,DVQG,≤ 0.2
25,REVC,≤ 0.2

row,Variant,one-hybrid fitness for binding parS DNA
1,TVNR,≤ 0.2
2,FNCS,≤ 0.2
3,QCHS,≤ 0.2
4,GTHW,≤ 0.2
5,PSSQ,≤ 0.2
6,VHPW,≤ 0.2
7,TGIS,≤ 0.2
8,RHFP,≤ 0.2
9,TYDC,≤ 0.2
10,SEFG,≤ 0.2
11,VLWK,≤ 0.2
12,HIYL,≤ 0.2
13,HSWC,≤ 0.2
14,QVHY,≤ 0.2
15,LGVG,≤ 0.2
16,TREL,≤ 0.2
17,RTWS,1.05
18,YASR,≤ 0.2
19,WTHR,≤ 0.2
20,QTCT,≤ 0.2
21,HRSP,≤ 0.2
22,PERF,≤ 0.2
23,FHHK,≤ 0.2
24,PFEV,≤ 0.2
25,HPFP,≤ 0.2

row,Variant,one-hybrid fitness for binding parS DNA
1,WVTT,≤ 0.2
2,KCHS,≤ 0.2
3,QGVR,≤ 0.2
4,LVYW,≤ 0.2
5,SCAC,≤ 0.2
6,QHWL,≤ 0.2
7,LMVF,≤ 0.2
8,HENW,≤ 0.2
9,GPIR,≤ 0.2
10,QAYS,≤ 0.2
11,LSLD,≤ 0.2
12,TGEC,≤ 0.2
13,WQHR,≤ 0.2
14,QREF,≤ 0.2
15,YVPL,≤ 0.2
16,LAAS,≤ 0.2
17,GRRN,≤ 0.2
18,RLWV,≤ 0.2
19,DLPL,≤ 0.2
20,QSWD,≤ 0.2
